In PubChem BioAssay (NCATS):
Where “and” joins values, the source holds several entries; their conditions need not be identical. Equal entries are not always repeated. Inconclusive means that the source gave no clear call. Such entries were picked first, then a sample of the others. Where the call is inconclusive, the potency comes from a doubtful curve fit. Calls of active or inactive are those of the source. The call rests on the fitted dose curve; in most records, active means well fitted curve in the direction sought with a large enough effect; inconclusive means small, poorly fitted or top-dose-only effect, or another doubt; inactive means no such curve, though single readings can be large; an effect the other way counts as inactive or inconclusive.

What was measured:
[1] = qHTS of pediatric cancer cell lines to identify multiple opportunities for drug repurposing: Primary screen for A673 cells (AID 1347092); details: A673 Ewing sarcoma viability, CellTiter-Glo ATP luminescence, 48 h; activity change, negative = cytotoxic: at 46 µM (top of the series) unless noted; further: nearly all actives have a fitted effect of over 45% in size; on activity change, negative = cytotoxic: on the % scale 0 is the no-effect control and ±100 the full control effect
Method in brief: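 Luminescence from CellTiter-Glo, taken after 15 min at room temperature, served as the proxy for metabolically active cells following 48 h treatment. Both potency and efficacy were taken from curves fitted to the titration data.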

[2] = qHTS of pediatric cancer cell lines to identify multiple opportunities for drug repurposing: Primary screen for Saos-2 cells (AID 1347097); details: Saos-2 viability, CellTiter-Glo ATP luminescence, 48 h; activity change, negative = cytotoxic: at 46 µM (top of the series); further: nearly all actives have a fitted effect of over 40% in size; on activity change, negative = cytotoxic: on the % scale 0 is the no-effect control and ±100 the full control effect
Method in brief: (§1)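 Viability was measured as metabolically active cells after 48 hours of treatment, read by CellTiter-Glo luminescence. Compounds were tested at multiple final concentrations, giving concentration-response curves.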

[3] = qHTS of pediatric cancer cell lines to identify multiple opportunities for drug repurposing: Primary screen for NB1643 cells (AID 1347099); details: NB1643 neuroblastoma viability, CellTiter-Glo luminescence, 48 h; series mostly up to 46 µM; further: nearly all actives have a fitted effect of over 50% in size;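 on activity change, negative = cytotoxic: plate controls were DMSO neutral control for no effect and bortezomib positive control for full effect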
Method in brief: as §1

[4] = qHTS of pediatric cancer cell lines to identify multiple opportunities for drug repurposing: Primary screen for BT-12 cells (AID 1347101); details: BT-12 viability, CellTiter-Glo luminescence, 48 h; series mostly up to 57.3 µM; further: nearly all actives have a fitted effect of over 25% in size;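 on activity change, negative = cytotoxic: plate controls were DMSO for no effect and bortezomib positive control for full effect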
Method in brief: (§2)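 Cells (500-1,000/well) rested 5 h, then received compounds for 48 h; metabolically active cells were measured by CellTiter-Glo luminescence. Final concentrations spanned up to 46 µM (MIPE, 11-point) or 0.59 nM-46 µM (NPC, 8-point) in primary screens, 11-point in follow-ups.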

[5] = qHTS of pediatric cancer cell lines to identify multiple opportunities for drug repurposing: Primary screen for LAN-5 cells (AID 1347100); details: LAN-5 neuroblastoma viability, CellTiter-Glo luminescence, 48 h; activity change, negative = cytotoxic: at 46 µM (top of the series);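 on activity change, negative = cytotoxic: plate controls were DMSO neutral control for no effect and bortezomib positive control for full effect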
Method in brief: (§3)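 Viability after 48 h compound treatment at 37C, 500-1,000 cells/well, read as ATP luminescence with CellTiter-Glo. Primary screens used 11-point (MIPE, 0.78 nM-46 µM) or 8-point (NPC, 0.59 nM-46 µM) final concentrations; follow-up screens used 11-point dilutions.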

[6] = qHTS of pediatric cancer cell lines to identify multiple opportunities for drug repurposing: Primary screen for SK-N-MC cells (AID 1347093); details: SK-N-MC viability, CellTiter-Glo luminescence, 48 h; activity change, negative = cytotoxic: at 46 µM (top of the series);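 on activity change, negative = cytotoxic: plate controls were DMSO neutral control for no effect and bortezomib for full effect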
Method in brief: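 Metabolically active cells were quantified by ATP-dependent luminescence (CellTiter-Glo, 15 min at room temperature) following 48 h treatment. Cells had been plated at 500-1,000 per well and settled for 5 h beforehand.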

[7] = qHTS of pediatric cancer cell lines to identify multiple opportunities for drug repurposing: Primary screen for NB-EBc1 cells (AID 1347095); details: NB-EBc1 neuroblastoma viability, CellTiter-Glo luminescence, 48 h; series mostly up to 46 µM;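 on activity change, negative = cytotoxic: plate controls were DMSO neutral control for no effect and bortezomib for full effect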
Method in brief: as §1

[8] = qHTS of pediatric cancer cell lines to identify multiple opportunities for drug repurposing: Primary screen for SK-N-SH cells (AID 1347098); details: SK-N-SH viability, CellTiter-Glo luminescence, 48 h; series mostly up to 57 µM; further: nearly all actives have a fitted effect of over 65% in size;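 on activity change, negative = cytotoxic: DMSO served as neutral control and bortezomib at 2.3 µM as positive control; on the % scale 0 is the no-effect control and ±100 the full control effect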
Method in brief: as §2

[9] = qHTS of pediatric cancer cell lines to identify multiple opportunities for drug repurposing: Primary screen for U-2 OS cells (AID 1347096); details: U-2 OS viability, CellTiter-Glo luminescence, 48 h; series mostly up to 46 µM; further: nearly all actives have a fitted effect of over 50% in size;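 on activity change, negative = cytotoxic: plate controls were DMSO wells for no effect and bortezomib positive control wells for full effect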
Method in brief: as §3

[10] = qHTS of pediatric cancer cell lines to identify multiple opportunities for drug repurposing: Primary screen for BT-37 cells (AID 1347094); details: BT-37 viability, CellTiter-Glo luminescence, 48 h; series mostly up to 57.3 µM;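 on activity change, negative = cytotoxic: plate controls were DMSO for no effect and bortezomib for full effect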
Method in brief: as §1
Potency means the concentration at half of the fitted maximal effect; tags describe the fitted curve by direction and shape.

SMILES: O=C1CN(/N=C/c2ccc([N+](=O)[O-])o2)C(=O)N1
- Potency [1]: inconclusive: 26.6 µM [cytotoxic, single point]
- Potency [2]: inactive
- Potency [3]: inactive
- Potency [4]: inconclusive: 27.6 µM [cytotoxic, single point]

SMILES: CC(=NNC(=S)N1CCC1)c1ccccn1
- Potency [1]: active: 0.0037 µM
- Potency [3]: active: 0.001 µM
- Potency [5]: active: 0.935 µM
- Potency [4]: active: 0.0014 µM

SMILES: Cc1ccc(O)c(-n2nc3ccccc3n2)c1
- Potency [6]: inactive

SMILES: CCOCCOC(=O)/C=C/c1ccc(OC)cc1
- Potency [1]: inactive
- Potency [7]: inactive
- Potency [2]: inactive
- Potency [8]: inactive
- Potency [3]: inactive
- Potency [5]: inactive

SMILES: C[C@@H]1CCN(C(=O)CC#N)C[C@H]1N(C)c1ncnc2[nH]ccc12
- Potency [1]: inconclusive: 23.5 µM [cytotoxic, partial curve]
- Potency [3]: inconclusive: 26.4 µM [cytotoxic, partial curve, poor fit]
- Potency [5]: inactive

SMILES: CCCCCCCCCCCCOCCO
- Potency [1]: inactive
- Potency [9]: inactive
- Potency [2]: inactive
- Potency [8]: inactive

SMILES: CN(C)c1cc(NC(=O)CNC(C)(C)C)c(O)c2c1C[C@@H]1C[C@H]3[C@H](N(C)C)C(=O)C(C(N)=O)=C(O)[C@@]3(O)C(=O)C1=C2O
- Potency [1]: inconclusive: 13.3 µM [cytotoxic, single point]
- Potency [2]: inactive
- Potency [5]: inconclusive: 33.5 µM [cytotoxic, single point]

SMILES: COc1ccc2nc(NC(=O)Nc3ccccc3)sc2c1
- Potency [1]: inactive
- Potency [2]: inconclusive: 37.6 µM [cytotoxic, single point]
- Potency [8]: inactive
- Potency [3]: inactive
- Potency [5]: inactive
- Potency [4]: inactive

SMILES: COCCn1c2c([n+](Cc3cnccn3)c1C)C(=O)c1ccccc1C2=O
- Potency [1]: active: 0.0059 µM
- Potency [9]: active: 0.118 µM
- Potency [2]: active: 0.0372 µM
- Potency [3]: active: 0.209 µM
- Potency [5]: active: 0.0047 µM
- Potency [4]: active: 0.0343 µM

SMILES: Cc1nc(N)sc1-c1ccnc(Nc2ccc(N3CCOCC3)cc2)n1
- Potency [1]: active: 9.35 µM
- Potency [2]: active: 11.8 µM
- Potency [8]: active: 6.81 µM

SMILES: C[N+](C)(C)CC(=O)O
- Potency [1]: inactive
- Potency [4]: inactive

SMILES: COc1ccnc(CS(=O)c2nc3ccc(OC(F)F)cc3[nH]2)c1OC (stereo unspecified)
- Potency [1]: inconclusive: 37.2 µM [cytotoxic, single point]
- Potency [3]: inconclusive: 33.2 µM [cytotoxic, single point]

SMILES: CC(C)c1ccc2oc3nc(N)c(C(=O)O)cc3c(=O)c2c1
- Potency [6]: inconclusive: 33.5 µM [cytotoxic, single point]

SMILES: O=[N+]([O-])c1ccc(Nc2ccccc2-c2ccccc2)c2nonc12
- Potency [1]: inconclusive: 37.2 µM [cytotoxic, partial curve, poor fit]
- Potency [2]: inconclusive: 26.4 µM [cytotoxic, partial curve]
- Potency [8]: inactive
- Potency [3]: active: 23.5 µM
- Potency [5]: inconclusive: 16.6 µM [cytotoxic, partial curve]
- Potency [4]: inconclusive: 24.3 µM [cytotoxic, partial curve, poor fit]

SMILES: CCCOC(=O)c1ccc(O)cc1
- activity change, negative = cytotoxic [1]: inconclusive: -44% [cytotoxic] [at 92.7 µM]
- Potency [2]: inconclusive: 48.6 µM [cytotoxic, single point]

SMILES: CC(C)c1ccc2c(c1)c(SC(C)(C)C)c(CC(C)(C)C(=O)O)n2Cc1ccc(Cl)cc1
- Potency [1]: inconclusive: 29.6 µM [cytotoxic, single point]
- Potency [2]: active: 29.6 µM
- Potency [8]: inconclusive: 38.3 µM [cytotoxic, single point]
- Potency [5]: inconclusive: 20.9 µM [cytotoxic, partial curve]
- Potency [4]: inconclusive: 30.6 µM [cytotoxic, single point]

SMILES: FC(F)(F)C(F)(F)C(F)(F)C(F)(F)C(F)(F)C(F)(F)C(F)(F)C(F)(F)Br
- Potency [1]: inactive
- Potency [2]: inactive
- Potency [3]: inactive

SMILES: CCc1ccc(C=C2SC(=S)NC2=O)cc1
- Potency [1]: inconclusive: 37.2 µM [cytotoxic, single point]
- Potency [7]: inconclusive: 20.9 µM [cytotoxic, partial curve]
- Potency [2]: inconclusive: 1.87 µM [cytotoxic, partial curve, poor fit]

SMILES: Cc1ccc(S(=O)(=O)NC(=O)NC2CCCCC2)cc1
- Potency [1]: inactive
- Potency [7]: inactive
- Potency [2]: inactive
- Potency [8]: inactive
- Potency [4]: inactive

SMILES: CON=C(C(=O)N[C@@H]1C(=O)N2C(C(=O)OCOC(=O)C(C)(C)C)=C(C=Cc3scnc3C)CS[C@H]12)c1csc(N)n1
- Potency [1]: inconclusive: 37.2 µM [cytotoxic, single point]
- Potency [8]: inactive

SMILES: Nc1ncnc2c1ncn2[C@@H]1O[C@@H](CO)[C@H](O)[C@H]1O
- Potency [1]: inconclusive: 20.9 µM [cytotoxic, single point]
- Potency [2]: inconclusive: 5.9 µM [cytotoxic, partial curve, poor fit]

SMILES: CC(C(=O)O)c1ccc(C(=O)c2cccs2)cc1 (stereo unspecified)
- Potency [1]: inactive
- Potency [2]: inconclusive: 23.7 µM [cytotoxic, single point]

SMILES: Cc1cnc(Nc2ccc(OCCN3CCCC3)cc2)nc1Nc1cccc(S(=O)(=O)NC(C)(C)C)c1
- Potency [1]: inconclusive: 1.18 µM [cytotoxic, single point]
- Potency [4]: inconclusive: 38.5 µM [cytotoxic, single point]

SMILES: N[C@@H](Cc1c[nH]c2ccc(O)cc12)C(=O)O
- Potency [1]: inconclusive: 18.7 µM [cytotoxic, partial curve]
- Potency [8]: inconclusive: 21.5 µM [cytotoxic, partial curve] and inconclusive: 38.6 µM [cytotoxic, partial curve, poor fit]
- Potency [4]: inconclusive: 10.9 µM [cytotoxic, partial curve]

SMILES: Cc1cc(C(C)(C)C)c(O)c(C)c1CC1=NCCN1
- Potency [1]: inconclusive: 37.2 µM [cytotoxic, single point]
- Potency [8]: inactive
- Potency [3]: inconclusive: 23.5 µM [cytotoxic, single point]
- Potency [4]: inactive

SMILES: Cc1ccnc2c1NC(=O)c1cccnc1N2C1CC1
- Potency [1]: inconclusive: 1.87 µM [cytotoxic, full curve]
- Potency [2]: inconclusive: 29.9 µM [cytotoxic, single point]
- Potency [4]: inactive

SMILES: Cc1[nH]c(=O)c(C#N)cc1-c1ccncc1
- Potency [1]: inconclusive: 23.5 µM [cytotoxic, single point]
- Potency [8]: inconclusive: 38.3 µM [cytotoxic, single point]

SMILES: O=NN(CCCl)C(=O)NCCCl
- Potency [1]: inactive
- Potency [9]: inactive

SMILES: Cc1c(C(=O)O)c(O)cc2c1C(=O)c1c(O)c([C@@H]3O[C@H](CO)[C@@H](O)[C@H](O)[C@H]3O)c(O)c(O)c1C2=O
- activity change, negative = cytotoxic [6]: inconclusive: -33.4% [cytotoxic]
- Potency [10]: inconclusive: 17.4 µM [cytotoxic, partial curve, poor fit]
- Potency [7]: inconclusive: 21.1 µM [cytotoxic, single point]
- Potency [2]: inconclusive: 21.1 µM [cytotoxic, partial curve]
- Potency [8]: inactive
- Potency [5]: inconclusive: 4.73 µM [cytotoxic, partial curve, poor fit]
- Potency [4]: inconclusive: 15.5 µM [cytotoxic, partial curve, poor fit]

SMILES: CCCCCCCCOc1ccccc1C(=O)Nc1ccc(C(=O)OCC[N+](C)(CC)CC)cc1
- Potency [6]: inconclusive: 26.4 µM [cytotoxic, single point] and inconclusive: 26.6 µM [cytotoxic, single point]
- Potency [10]: inconclusive: 27.3 µM [cytotoxic, single point] and inconclusive: 38.9 µM [cytotoxic, single point]
- Potency [9]: inconclusive: 23.5 µM [cytotoxic, single point] and inconclusive: 26.6 µM [cytotoxic, single point]
- Potency [2]: active: 29.6 µM and inconclusive: 29.9 µM [cytotoxic, partial curve, poor fit]
- Potency [3]: inconclusive: 9.35 µM [cytotoxic, partial curve] and inconclusive: 33.5 µM [cytotoxic, single point]
- Potency [4]: inconclusive: 27.3 µM [cytotoxic, single point]

SMILES: c1ccc2sc(SN3CCOCC3)nc2c1
- Potency [6]: inactive

SMILES: OCCC#Cc1nc(-c2ccc(F)cc2)c(-c2ccncc2)n1CCCc1ccccc1
- Potency [6]: active: 18.7 µM
- Potency [10]: inconclusive: 24.3 µM [cytotoxic, partial curve]
- Potency [9]: inconclusive: 23.5 µM [cytotoxic, partial curve, poor fit]
- Potency [2]: inconclusive: 33.2 µM [cytotoxic, single point]
- Potency [4]: inconclusive: 30.6 µM [cytotoxic, single point]

SMILES: NC(=O)c1cccc2[nH]c(-c3ccc([C@H]4CCCN4)cc3F)nc12
- Potency [6]: inconclusive: 26.4 µM [cytotoxic, single point]
- Potency [10]: inconclusive: 21.7 µM [cytotoxic, single point]
- Potency [2]: inactive
- Potency [8]: inconclusive: 24.1 µM [cytotoxic, partial curve]
- Potency [3]: inconclusive: 20.9 µM [cytotoxic, single point]
- Potency [5]: inconclusive: 23.5 µM [cytotoxic, single point]

SMILES: O=C(OCc1ccccc1)c1ccc(O)cc1
- Potency [6]: inactive
- Potency [10]: inactive
- Potency [2]: inactive
- Potency [8]: inconclusive: 13.7 µM [cytotoxic, partial curve, poor fit]
- Potency [4]: inactive

SMILES: CN(C)c1ccc(Nc2nc(N)n(C(=O)c3c(F)cccc3F)n2)cc1
- Potency [6]: active: 0.469 µM
- Potency [10]: inconclusive: 27.3 µM [cytotoxic, partial curve]
- Potency [7]: inconclusive: 4.69 µM [cytotoxic, partial curve, poor fit]
- Potency [9]: inconclusive: 23.5 µM [cytotoxic, partial curve, poor fit]
- Potency [4]: inconclusive: 38.5 µM [cytotoxic, single point]
